# Publication PMC6919601, “Identification of Plasmodium dipeptidyl aminopeptidase allosteric inhibitors by high throughput screening” (PLoS ONE, 2019)
# The whole screen tested about 110,000 compounds, of which about 230 (0.21%) showed an effect of 50% or more. The list shows a part of the results.
# Molecular target: DPAP1 (Plasmodium falciparum, UniProt Q8IIJ9)
# Assay: primary screen, percent inhibition; read by cleavage of a fluorogenic dipeptide substrate; higher = more effect of the substance
# Design: species or system P. falciparum D10 trophozoite lysates; single well
# 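Also: 30 min substrate incubation versus DMSO and 10 µM JCP410 controls.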
# DPAP1, sequence (Q8IIJ9 whole entry, looked up): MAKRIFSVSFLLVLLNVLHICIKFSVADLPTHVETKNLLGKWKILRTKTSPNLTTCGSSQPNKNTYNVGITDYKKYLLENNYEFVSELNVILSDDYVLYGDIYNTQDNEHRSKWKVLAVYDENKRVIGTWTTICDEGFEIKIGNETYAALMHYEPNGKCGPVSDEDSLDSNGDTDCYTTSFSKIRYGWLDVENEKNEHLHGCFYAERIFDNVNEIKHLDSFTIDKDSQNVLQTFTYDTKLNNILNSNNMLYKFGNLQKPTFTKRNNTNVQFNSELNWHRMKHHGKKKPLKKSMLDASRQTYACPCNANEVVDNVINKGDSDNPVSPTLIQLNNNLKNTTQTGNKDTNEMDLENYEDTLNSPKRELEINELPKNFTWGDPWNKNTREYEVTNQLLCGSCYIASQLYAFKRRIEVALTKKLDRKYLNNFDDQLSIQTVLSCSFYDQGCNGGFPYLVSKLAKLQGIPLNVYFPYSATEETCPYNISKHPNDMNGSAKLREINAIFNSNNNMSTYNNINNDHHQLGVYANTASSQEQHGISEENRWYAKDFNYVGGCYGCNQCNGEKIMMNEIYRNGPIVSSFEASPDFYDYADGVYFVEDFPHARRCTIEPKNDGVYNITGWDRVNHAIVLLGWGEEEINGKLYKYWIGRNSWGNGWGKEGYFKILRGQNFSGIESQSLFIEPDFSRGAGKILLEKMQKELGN
row,Structure (SMILES),% Inhibition @ 10 uM
1,CCO/C=N/c1oc(-c2ccccc2)c(-c2ccccc2)c1C#N,3.36%
2,Cc1ccc(S(=O)(=O)Nc2ccc(Cl)cc2)cc1,2.8%
3,Cc1nc2sc(C#N)c(N)c2c(C)c1C,-0.239%
4,Cn1ccc(C(=O)NC2C3CC4CC(C3)CC2C4)n1 (stereo not drawn),-2.17%
5,CC1CCC(NCCN2CCOCC2)CC1 (stereo not drawn),-7.11%
6,Brc1ccc(OCCCN2CCCCC2)cc1,2.26%
7,COc1cc(C)ccc1OCCCCNC1CCCC1,-3.78%
8,COc1ccc(OC)c(C2c3[nH]c4ccccc4c3CC3C(=O)N(C)C(=S)N32)c1 (stereo not drawn),12.1%
9,CCOc1cc(C2CC(=O)NC(SCC)=C2C#N)ccc1O (stereo not drawn),-7.3%
10,Cc1cccc(C(=O)NCc2ccccc2)c1,1.91%
11,CC(C)C[C@H](NC(=O)c1cc(-c2ccccc2)no1)C(=O)NCC#N,-5.2%
12,COc1ccc(CNC(=O)c2ccc(C/N=c3\c(O)c(O)\c3=N/C3CCCCC3)cc2)cc1,-2.25%
13,O=C(Nc1ccc2c(c1)OCCO2)c1sc2ccccc2c1Cl,-6.18%
14,O=C1OC(c2cccc(Br)c2)=N/C1=C\c1cc(Br)cs1,-0.617%
15,Cc1cc(F)c(F)cc1C(=O)N1C(C)CCCC1C (stereo not drawn),-4.7%
16,COc1ccc(OC)c(/C=C2\SC(=O)N(CC(=O)O)C2=O)c1,2.84%
17,CCOC(=O)c1c(S(=O)(=O)N2CCN(c3ncccn3)CC2)c(C)n(C)c1C,0.399%
18,CC1CCCCN1C(=O)c1cc2ccc3cccnc3c2[nH]1 (stereo not drawn),-2.35%
19,C#CCn1cnc2c(cnn2-c2ccc(C)c(C)c2)c1=O,-0.0309%
20,Cc1c(C)n(Cc2ccccc2)c2ccc(C(=O)NC(C)C)cc12,-7.44%
21,Cn1c(=O)[nH]c(=O)c2c1nc(Br)n2Cc1ccccc1Cl,-9.4%
22,CCC(C)c1ccccc1OCC(=O)Nc1ccc(S(=O)(=O)N2CCC(C)CC2)cc1 (stereo not drawn),-3.26%
23,N#CC1(c2ccccc2)CCN(S(=O)(=O)c2cccc3cccnc23)CC1,-3.39%
24,Cc1cccc(-c2nc3s/c(=C\c4ccc(C)o4)c(=O)n3n2)c1,-8.79%
25,Cc1ccccc1Cn1c(N2CCC(C)CC2)nc2c1c(=O)n(C)c(=O)n2C,-2.13%
26,COc1ccc(C2C(C(=O)c3ccccc3)=C(O)C(=O)N2CCN(C)C)c(OC)c1 (stereo not drawn),2.39%

row,Structure (SMILES),% Inhibition @ 10 uM
1,Cc1cccc(C(=O)OCCN2CCN(C3=NS(=O)(=O)c4ccccc43)CC2)c1,-11.8%
2,COc1ccc(S(=O)(=O)Nc2ccccc2C(=O)NCC(C)C)cc1OC,2.95%
3,Cc1ccc(-c2csc(/C(C#N)=C\c3ccc(Br)cc3)n2)cc1,0.912%
4,O=C(NC1CCCc2ccccc21)c1csc2c1CCCC2 (stereo not drawn),-0.622%
5,CC(C)(C)c1ccc(C2C3=C(CCCC3=O)N=C3C2=C(O)c2ccccc23)cc1 (stereo not drawn),-4.51%
6,CCCCOc1ccc(N2C(=O)CC(NCc3ccc4c(c3)OCO4)C2=O)cc1 (stereo not drawn),-0.622%
7,COc1ccc(C(=O)COC(=O)c2ccccc2)cc1,-0.962%
8,O=S(=O)(c1ccccc1)c1ccc(N2CCCCC2)cc1,4.82%
9,Cc1ccc2nc3nc(C)cc(C)c3c(O)c2c1,-3.95%
10,COC(=O)/C=C1/OC(c2ccc(Cl)cc2)=CC1=O,-0.687%
11,COc1ccc(CNC(=O)c2c(O)nc3c(c2O)CCCC3)cc1OC,5.66%
12,O=C1C(c2ccccc2)=NOC12CCCC2,0.00784%
13,O=C(NC1CSC(C(=O)O)C1=O)c1ccccc1 (stereo not drawn),-3.66%
14,COc1ccc(C(=O)O)cc1COc1ccccc1Cl,0.35%
15,O=C(Cc1ccccc1F)Nc1ccc(C(=O)c2ccccc2)cc1,-4.66%
16,CCCCN1C(=O)C(NC(=O)CC(C)C)(C(F)(F)F)C2=C1CC(C)(C)CC2=O (stereo not drawn),1.15%
17,Cc1ccc(NCc2cccnc2)cc1,1.29%
18,CCCC(C)N1CCN(S(=O)(=O)c2cc(-c3onc(C)c3C)ccc2OC)CC1 (stereo not drawn),-1.23%
19,CC(C)(CO)NC(=O)CSc1ccc(C(F)(F)F)cc1Cl,-2.24%
20,CCN(CC)C(=O)COc1ccc2ccccc2c1Br,2.44%
21,COC(=O)N1CC(=O)N(OC)C1c1ccc(Cl)cc1Cl (stereo not drawn),2.92%
22,CCOc1ccccc1N1CCN(C(=O)c2c(-c3ccccc3Cl)noc2C)CC1,0.389%
23,COc1ccc(-c2cc(C(F)(F)F)nc(S(=O)(=O)CCCC(=O)O)n2)cc1OC,11.6%
24,NC(=O)c1c(NC(=O)C(c2ccccc2)c2ccccc2)sc2c1CCC2,-7.93%
25,O=C(COc1ccccc1)Nc1cccc2c(NC(=O)COc3ccccc3)cccc12,1.29%
26,Cc1ccccc1S(=O)(=O)Cc1ccc(C(=O)NCCCSC2CCCCC2)o1,-1.28%

row,Structure (SMILES),% Inhibition @ 10 uM
1,Cc1c(C(=O)N2CCN(c3ccc(F)cc3)CC2)cccc1[N+](=O)[O-],-1.64%
2,CN1CCN(C(=O)c2ccc3ccccc3c2)CC1,-0.28%
3,CC(C)(C)/N=c1/c(-c2ccc(Cl)cc2)c(O)c1=O,-2.56%
4,Cn1ncc2c(NC(c3ccccc3)c3ccccc3)ncnc21,-1.27%
5,CC(C)CC(C(=O)NCC#N)c1cccc(-c2cncc3ccccc23)c1 (stereo not drawn),0.173%
6,Cn1c(=O)c2c(nc(OCC3COC(C)(C)O3)n2Cc2ccccc2Cl)n(C)c1=O (stereo not drawn),1.72%
7,CCCCc1ccc(C(=O)Nc2cc3ccccc3oc2=O)cc1,4.15%
8,CCOc1ccc(C(=O)Nc2nn3c(CC)nnc3s2)cc1,2.25%
9,O=C(Nc1nc[nH]n1)c1ccccc1O,-7.25%
10,COc1ccc(C(=O)Nc2cccc(C(=O)Nc3cccc(Cl)c3)c2)cc1,-4.43%
11,CC(C)(C)c1ccc(Oc2nc3ccccn3c(=O)c2/C=C(\C#N)S(=O)(=O)c2ccccc2)cc1,0.189%
12,COc1ccc(C2NC(C(=O)O)Cc3c2[nH]c2ccccc32)c(OC)c1 (stereo not drawn),-0.0372%
13,COc1cc(C2Nc3ccccc3C(=O)N2Cc2ccco2)ccc1O (stereo not drawn),-5.71%
14,C=C(C)CC(C(=O)NCC#N)c1cncc(-c2ccccc2)c1 (stereo not drawn),-4.72%
15,COc1ccccc1C(=O)Nc1ccc2oc(-c3ccc(N(C)C)cc3)nc2c1,0.35%
16,Cc1ccc2oc(-c3ccc(Br)c(N)c3)nc2c1,-3.45%
17,COc1ccc(C2c3cc(OC)c(OC)cc3CCN2C)cc1OC (stereo not drawn),-6.29%
18,CCCN1CCN(CCCNC(=O)c2ccc3c(Cl)c4c(nc3c2)CCCC4)CC1,7.03%
19,O=C(Cn1c(=O)c2cccn2c2cccnc21)N1CCN(C2CCCCC2)CC1,6.66%
20,CCSc1nnc(NC(=O)c2c(-c3ccccc3)noc2C)s1,-4.77%
21,O=C1CSC(c2ccccc2)N1CC(O)c1ccccc1 (stereo not drawn),-9.91%
22,Cn1cnc2c(=O)oc3ccc(S(=O)(=O)NCC4CCCO4)cc3c21 (stereo not drawn),-1.83%
23,CS(=O)(=O)N(CC(=O)NCc1ccc(Cl)cc1)c1cccc(Cl)c1Cl,-17.1%
24,CCN1CCN(CCc2ccccc2)CC1,1.08%
25,COc1ccccc1NCN1C(=O)CCC1=O,1.7%
26,COc1ccc(CCNC(=O)C2CCCN(S(=O)(=O)c3cccc4nonc34)C2)cc1OC (stereo not drawn),-2.56%

row,Structure (SMILES),% Inhibition @ 10 uM
1,O=C(Nc1cccnc1Cl)c1cc2c(s1)-c1ccccc1S(=O)(=O)C2,-0.72%
2,Cc1ccc2nc(NC3CCCCC3)c3nnnn3c2c1,-4.59%
3,COc1ccc(CCNC(=O)CSc2ccc(-c3cccs3)nn2)cc1OC,0.581%
4,O=C(NCc1ccccc1)c1ccc(N2C(=O)CSC23C(=O)Nc2ccccc23)cc1 (stereo not drawn),-1.19%
5,CCC(Cc1ccccc1)NC(=O)C1CCN(C(=O)c2cc3sccc3n2C)CC1 (stereo not drawn),-1.58%
6,CCOc1ccc(C(=O)Nc2cccc(F)c2)cc1,-9.68%
7,CCn1c(C(=O)NCCCN2CCc3ccccc3C2)cc2sccc21,-6.68%
8,CCn1c(=O)[nH]c2cc(C(=O)Nc3ccc(OC)cc3)ccc2c1=O,-5.32%
9,O=C(c1ccccc1)N1CCc2[nH]ncc2C1,-3.1%
10,CN1CCN(C(=O)C2c3ccccc3C=Cc3ccccc32)CC1,-0.312%
11,COc1ccc(N2CCN(Cc3cccc(C(F)(F)F)c3)CC2)cc1,-2.56%
12,O=C(NCc1ccccc1Cl)NC12CC3CC(CC(C3)C1)C2,0.35%
13,CC(C)(C)OC(=O)NC(Cc1c[nH]c2ccccc12)C(=O)NCC#N (stereo not drawn),1.7%
14,Cc1onc(-c2ccccc2)c1C(=O)NCC1CCN(C(=O)c2c(-c3ccccc3)noc2C)CC1,3.67%
15,CCOC(=O)c1sc(N2C(=O)c3oc4ccc(C)cc4c(=O)c3C2c2cccc(OC)c2)nc1C (stereo not drawn),5.3%
16,CCCN1CCN(C(=O)c2oc3ccccc3c2NC(=O)COc2ccc(OC)cc2)CC1,-3.09%
17,Cn1nc(C(=O)Nc2ccc(Cl)cn2)c2c1-c1ccccc1OC2,0.00665%
18,O=C(NCc1cccs1)c1ccc(-n2cccc2)cc1,-3.93%
19,CC(C)C[C@H](Nc1ccccc1[N+](=O)[O-])C(=O)NCC#N,-8.49%
20,O=c1c(Cc2ccccc2)c(O)cc(-c2cccnc2)n1-c1ccc(Cl)cc1,0.726%
21,CCc1ccc(-c2oc(C)c(C)[n+]2[O-])cc1,2.94%
22,CC1CCN(c2c(NCc3ccc(C(=O)NCc4cccnc4)cc3)c(=O)c2=O)CC1,2.76%
23,Cc1ccc2c(c1)C(OC1CCN(C)CC1)c1ccccc1CS2 (stereo not drawn),-16.5%
24,NC(=S)N/N=C/c1cccc(C(=O)O)c1O,2.8%
